Changes are numbered by the printed parent chain. In names and notes the source's numbering stands. Results are given in words; binding and its absence hold for the method and conditions named. For some of these results: In cells and extracts the contact can be indirect. Some results given as binding are weak or reduced against the parent protein; the word gives no strength. For some of these results: Sequences can lack the tags named with a protein.

In assay [1] the target is VIN3, full length, tagged (GFP-VIN3) (Arabidopsis thaliana) (UniProt Q9FIE3). As to the kind of experiment: co-IP; co-overexpression in HEK293T cells; lysis in 20 mM Tris pH 7.4, 200 mM NaCl, 10% glycerol, 0.2% Triton X-100; GFP-tagged protein precipitated with GFP-trap, 90 min at 4°C; Western blot.
In assay [2] the target is Lip-VIN3VEL (residues 500–603) RR>AD (R554A R556D) (Arabidopsis thaliana) (UniProt Q9FIE3). Briefly: SEC-MALS; Superdex200 10/300 GL in PBS with 1 mM DTT; increasing protein concentrations (2 mg/mL unless stated otherwise); self-association; both purified.
The target of assay [3] is Lip-VIN3VEL (residues 500–603) I575D (Arabidopsis thaliana) (UniProt Q9FIE3). The description is as above.
In assay [4] the target is VEL1, full length, tagged (GFP-VEL1) (Arabidopsis thaliana) (UniProt Q9SUM4). As to the kind of experiment: co-IP; co-overexpression in HEK293T cells; lysis in 20 mM Tris pH 7.4, 200 mM NaCl, 10% glycerol, 0.2% Triton X-100; GFP-tagged protein precipitated with GFP-trap, 90 min at 4°C; Western blot. (A western blot detects proteins with antibodies after separation by electrophoresis.)

For assay [5], the target named is VIN3VEL, wild type, Lip tag cleaved off by TEV protease (EM) (Arabidopsis thaliana) (UniProt Q9FIE3). Briefly: negative-stain electron microscopy; purified VIN3VEL (∼35 μM) or VEL1VEL (∼138 μM) on carbon grids, 2% uranyl acetate; self-assembly into fibers or lattices; both purified.
For assay [6], the target named is VRN5, full length, tagged (GFP-VRN5) (Arabidopsis thaliana) (UniProt Q9LHF5). Briefly: co-IP; co-overexpression in HEK293T cells; lysis in 20 mM Tris pH 7.4, 200 mM NaCl, 10% glycerol, 0.2% Triton X-100; GFP-tagged protein precipitated with GFP-trap, 90 min at 4°C; Western blot.
The target of assay [7] is Lip-VEL1VEL (residues 589–692) RK>AD (R643A K645D) (Arabidopsis thaliana) (UniProt Q9SUM4). Briefly: SEC-MALS; Superdex200 10/300 GL in PBS with 1 mM DTT; increasing protein concentrations (2 mg/mL unless stated otherwise); self-association; both purified. In general terms: Size exclusion chromatography separates by hydrodynamic size, large species first.
The target of assay [8] is VEL1VEL (residues 589–692) RK>AD, as examined for floaters and fibers (Arabidopsis thaliana) (UniProt Q9SUM4). Briefly: negative-stain electron microscopy; purified VIN3VEL (∼35 μM) or VEL1VEL (∼138 μM) on carbon grids, 2% uranyl acetate; self-assembly into fibers or lattices; both purified.

As for “VIN3, full length, tagged (GFP-VIN3) (from UniProt Q9FIE3 1-620)”, the binding entry in assay [1] was “binds”.

B1: Lip-VIN3VEL (residues 500–603) RR>AD (R554A R556D) (domain or fragment, UniProt Q9FIE3 500-603)
chain: GKQGGNKRFKSRTVSLNEKPEINNAANGVGDKDLGHIVKTIRCLEEEGHIDKSFAEDFLTWYSLRATHREVRVVKIFVETFMEDLSSLGQQLVDTFSESILSKR
Regarding B1, the binding result in assay [2] is given as “no binding”.

B2: Lip-VIN3VEL (residues 500–603) I575D (domain or fragment, UniProt Q9FIE3 500-603)
chain: B1 chain with A55R, D57R, I76D
As for B2, in assay [3], the binding result is given as “no binding”.

B3: VEL1, full length, tagged (GFP-VEL1) (protein, UniProt Q9SUM4 1-714)
chain: MDSSLDGAAGDSSKCSEMSVDEKRQLVYELSKQSHLAAEVLQAWSRQEILQILCAEMGKERKYTGLTKVKIIETLLKIVSEKNSGECEGKKRDSDCLPIQRNTKRQRKVDNPSRYVIPATNIVTSNNASGSCSSVNTKGESTTIYCKNLACRAVLRQEDSFCRRCSCCICRKYDDNKDPSLWLTCSSDPPFEGESCGFSCHLECAFNTEKSGLGKDKQSEGCCFYCVSCGKANSLLECWKKQLTIAKETRRVEVLCYRLFLVQKLLKSSTKYRNLCEVVDEAVKTLEADVGPLTGLPMKMGRGIVNRLHSGPDVQKLCSSALESLETIATTPPDVAALPSPRSSKMQQDCSYVLSNEISADTATTGSTKIRFEDVNATSLTVVLASNEIPSPPNIVHYSIWHRKVPEKDYPEKSTCTLFIPNTRFVVSGLAPASEYCFKVVSYSGTREMGVDEINVLTRSAEEGANCSSAVERSVSPLTNCSTLSSNPSSVEAESNNDYIVPKKPSSKNEDNNSPSVDESAAKRMKRTTDSDIVQIEKDVEQIVLLDDEEQEAVLDKTESETPVVVTTKSLVGNRNSSDASLPITPFRSDEIKNRQARIEISMKDNCNNGDHSANGGTESGLEHCVKIIRQLECSGHIDKNFRQKFLTWYSLRATSQEIRVVKIFIDTFIDDPMALAEQLIDTFDDRVSIKRSAVGGSGASAVVPSGFCMKLWH
B3: the binding entry in assay [1] and in assay [4] was “binds” throughout.

B4: VIN3VEL, wild type, Lip tag cleaved off by TEV protease (EM) (domain or fragment, UniProt Q9FIE3 529-603)
chain: GDKDLGHIVKTIRCLEEEGHIDKSFRERFLTWYSLRATHREVRVVKIFVETFMEDLSSLGQQLVDTFSESILSKR
In the case of B4, the binding result in assay [5] is listed as “binds”.

B5: VRN5, full length, tagged (GFP-VRN5) (protein, UniProt Q9LHF5 1-602)
chain: MDSSSTKSKISHSRKTNKKSNKKHESNGKQQQQQDVDGGGGCLRSSWICKNASCRANVPKEDSFCKRCSCCVCHNFDENKDPSLWLVCEPEKSDDVEFCGLSCHIECAFREVKVGVIALGNLMKLDGCFCCYSCGKVSQILGCWKKQLVAAKEARRRDGLCYRIDLGYRLLNGTSRFSELHEIVRAAKSMLEDEVGPLDGPTARTDRGIVSRLPVAANVQELCTSAIKKAGELSANAGRDLVPAACRFHFEDIAPKQVTLRLIELPSAVEYDVKGYKLWYFKKGEMPEDDLFVDCSRTERRMVISDLEPCTEYTFRVVSYTEAGIFGHSNAMCFTKSVEILKPVDGKEKRTIDLVGNAQPSDREEKSSISSRFQIGQLGKYVQLAEAQEEGLLEAFYNVDTEKICEPPEEELPPRRPHGFDLNVVSVPDLNEEFTPPDSSGGEDNGVPLNSLAEADGGDHDDNCDDAVSNGRRKNNNDCLVISDGSGDDTGFDFLMTRKRKAISDSNDSENHECDSSSIDDTLEKCVKVIRWLEREGHIKTTFRVRFLTWFSMSSTAQEQSVVSTFVQTLEDDPGSLAGQLVDAFTDVVSTKRPNNGVMTSH
With B5, the binding entry in assay [1] and in assay [6] was “binds” throughout.

B6: Lip-VEL1VEL (residues 589–692) RK>AD (R643A K645D) (domain or fragment, UniProt Q9SUM4 589-692)
chain: SDEIKNRQARIEISMKDNCNNGDHSANGGTESGLEHCVKIIRQLECSGHIDKNFAQDFLTWYSLRATSQEIRVVKIFIDTFIDDPMALAEQLIDTFDDRVSIKR
Consider B6, for which, in assay [7], the binding result is on record as “no binding”.

B7: VEL1VEL (residues 589–692) RK>AD, as examined for floaters and fibers (domain or fragment, UniProt Q9SUM4 589-692)
chain: B6 chain
As for B7, the binding result in assay [8] is “no binding”.
